Measured values taken from publication PMC7819943, “Rice protein-binding microarrays: a tool to detect cis-acting elements near promoter regions in rice”.
This is one part of the list.

What follows are sequences tested against T1, OsWOX13 (Oryza sativa, UniProt Q5QMM3 1-267) (assay: protein-binding microarray (RPBM); PBS, 2% BSA, 51.3 ng/ul salmon testes DNA, 50 uM zinc acetate, 200 nM TF, 25 C, 1 h; high values mean tight binding). Details: protein: recombinant; tags: N-terminal polyhistidine and DsRed monomer fusion (pET32a); label: CyDye5-dUTP incorporated in the synthesized complementary strand; 3' TTTTT single-stranded linker to array surface; dsDNA, one strand shown.
T1 sequence: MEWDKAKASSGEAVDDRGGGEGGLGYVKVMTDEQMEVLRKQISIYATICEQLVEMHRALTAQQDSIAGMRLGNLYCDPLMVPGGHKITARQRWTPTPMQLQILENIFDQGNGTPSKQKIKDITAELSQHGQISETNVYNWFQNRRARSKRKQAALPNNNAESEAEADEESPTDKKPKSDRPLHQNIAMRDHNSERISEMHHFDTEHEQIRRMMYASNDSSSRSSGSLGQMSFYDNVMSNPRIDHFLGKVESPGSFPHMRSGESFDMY
Outline: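 Per-feature fluorescence intensity (arbitrary units), read on an Axon 4000B scanner, is the binding signal. Transcription factors carrying an N-terminal polyhistidine tag and DsRed fusion were expressed in E. coli BL21-CodonPlus and purified on Ni–NTA. A custom Agilent array, made double-stranded by primer extension with Cy5-dUTP and blocked with 2% BSA, was incubated with 200 nM protein in PBS, 2% BSA, salmon testes DNA and 50 µM zinc acetate at 25 °C for 1 h and then washed.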

Row | Sequence | binding signal
1 | TTTAATCATGGACATGATCAATTGATCAGAACAACAAACACGGAGTCACCTAGTGCAG | 7730 fluorescence intensity (a.u.)
2 | GTGGGGATTGGGGATCGGAGAGAAGGGGAAATTTTGGACGCGGAGTCACCTAGTGCAG | 4740 fluorescence intensity (a.u.)
3 | GCAGTATTCATTTGTGTGATTAATTAGTGGTGAGTAAACACGGAGTCACCTAGTGCAG | 11600 fluorescence intensity (a.u.)
4 | TTTGATTTGCATACATGTAATCCTCAAGATATCTCCACGTCGGAGTCACCTAGTGCAG | 38800 fluorescence intensity (a.u.)
5 | CTGACAAATTAGAGACTACAGAGCAAAAGGTTCAGACATACGGAGTCACCTAGTGCAG | 7000 fluorescence intensity (a.u.)
6 | GATAGATAGATAGATACATACACACAAACATAAGTAGCTACGGAGTCACCTAGTGCAG | 19100 fluorescence intensity (a.u.)
7 | TCATAAATTCAATTTCATCCATTATCCTATTTTAGACTACCGGAGTCACCTAGTGCAG | 9280 fluorescence intensity (a.u.)
8 | TTCAATAATTGAGATCCCTTCTCTCTATGTTACTTCCTCCCGGAGTCACCTAGTGCAG | 24000 fluorescence intensity (a.u.)
9 | CGTGCGTTTATAGGGGTGACTGCGTGTGTGTAATGAGTGTCGGAGTCACCTAGTGCAG | 3270 fluorescence intensity (a.u.)
10 | AGATTGATTATAGATGAATTGGAGATAGTAGCGGGCTATACGGAGTCACCTAGTGCAG | 32100 fluorescence intensity (a.u.)
11 | TTTAATTTGGGAGTTTGTTTACTGCACATAGAGAAGCTAGCGGAGTCACCTAGTGCAG | 10700 fluorescence intensity (a.u.)
12 | CATCCCTTTTAATTATTTGAGATTAAGTCCTTACCTACTACGGAGTCACCTAGTGCAG | 5000 fluorescence intensity (a.u.)
13 | CAATTAATCATACGCTAATGGCTCAACTCGTTTTGTGTATCGGAGTCACCTAGTGCAG | 9170 fluorescence intensity (a.u.)
14 | CTGATTGATTCGTAATAGTAGAATAGGACATGTTACCATACGGAGTCACCTAGTGCAG | 64500 fluorescence intensity (a.u.)
15 | ATCACATCGTTTTAATTTCAATCAAACTTCCAATATTAGCCGGAGTCACCTAGTGCAG | 17500 fluorescence intensity (a.u.)
16 | GGAAATTGACTAATTAATATTAAGCTCTTGATTGTCAAAACGGAGTCACCTAGTGCAG | 42600 fluorescence intensity (a.u.)
17 | TTTAAAATGATAGGAATTCAATCCTTTATTTCAAAGGCATCGGAGTCACCTAGTGCAG | 5150 fluorescence intensity (a.u.)
18 | ACAAATTTAACGATTTTATAATTATATAAAAGTTACATATCGGAGTCACCTAGTGCAG | 11700 fluorescence intensity (a.u.)
19 | TTCCATACAAATCAATCGTTCAGTCATATAATCGTCGCATCGGAGTCACCTAGTGCAG | 3560 fluorescence intensity (a.u.)
20 | ATTAATTATTAATTTACTTTTGACAATTACTAATTAGCCACGGAGTCACCTAGTGCAG | 56700 fluorescence intensity (a.u.)
21 | CTCCCAATGTACATTAACAGGTAGTGACGGGATAGACGAACGGAGTCACCTAGTGCAG | 6110 fluorescence intensity (a.u.)
22 | GCAAATTGATATGCTAGCTGTAATCCACATATTTCAGTAGCGGAGTCACCTAGTGCAG | 40200 fluorescence intensity (a.u.)
23 | CTTAACTGCTACGAGGGCTGAGATTCGCATTGAAACATTGCGGAGTCACCTAGTGCAG | 8220 fluorescence intensity (a.u.)
